From PubChem BioAssay AID1346428 (National Center for Advancing Translational Sciences (NCATS), 2018)
Among all 48,000 compounds or so, about 1,200 (2.5%) were called active. Not shown: some 2% with an inconclusive outcome.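 How the source made its calls: active means activation of at least 60% and not above a set upper limit (about 1 call in 100 departs from these limits); inconclusive means activation of 40% to 60%, or above that upper limit; inactive means activation under 40%.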 The list shows a part of the results.

These compounds were tested against Probable G-protein coupled receptor 32 (Homo sapiens) (UniProt O75388) (assay: qHTS for Agonists of Human Resolvin D1 Receptor DRV1). Conditions: CHO-K1 GPR32 beta-arrestin PathHunter luminescence, 90 min; at 76.9 µM; active compounds read high; zero percent set by DMSO-only wells.
Sequence of UniProt O75388 (O75388 whole entry, looked up): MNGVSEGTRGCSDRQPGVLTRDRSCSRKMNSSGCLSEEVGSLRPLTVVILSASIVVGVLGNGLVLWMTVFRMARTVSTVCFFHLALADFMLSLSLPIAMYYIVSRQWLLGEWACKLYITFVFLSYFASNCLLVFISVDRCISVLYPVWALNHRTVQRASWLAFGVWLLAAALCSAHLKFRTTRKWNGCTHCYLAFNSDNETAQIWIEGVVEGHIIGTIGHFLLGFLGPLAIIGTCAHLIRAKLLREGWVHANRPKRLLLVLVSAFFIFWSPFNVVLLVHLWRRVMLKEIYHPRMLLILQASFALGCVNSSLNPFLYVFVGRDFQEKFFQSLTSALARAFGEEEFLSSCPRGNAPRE
Outline: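 Beta-arrestin recruitment read-out: luminescence from complemented beta-Gal in CHO-K1 GPR32 PathHunter cells, measured 1 h after detection reagent at ambient temperature following 90 min compound exposure at 37 °C; DMSO served as basal (EC0) control.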
Further: 0% is about no effect.

activation, active:
COc1cccc(NS(=O)(=O)c2ccc3[nH]cc(C(=O)NC4CCCCC4)c(=O)c3c2)c1 103%
CCOC(=O)C1CCCN(C(=O)c2cc3c(=O)n(C)c4ccccc4c3s2)C1 (stereo not drawn) 103%

activation, inactive:
COC(=O)c1cc2sccc2n1Cc1ccccc1 -13.2%
Cc1cc(NS(=O)(=O)c2ccc(NC(=O)COc3c(C)cc(Br)cc3C)cc2)no1 -8.59%
O=S(=O)(NCc1ccccc1)c1ccc2[nH]c3c(c2c1)CCCCC3 10.6%
COc1cc(C(=O)Nc2ccc(-c3cc(C(F)(F)F)nn3-c3ccccc3)cc2)cc(OC)c1OC -0.0264%
COc1ccccc1CNc1nc(-c2ccco2)nn1S(=O)(=O)c1ccc(Cl)cc1 -20.7%
Cc1ccc(S(=O)(=O)Nc2cc(Cl)c3oc4c(c3c2)C(=O)CC(C)(C)C4)cc1 -2.05%
CCc1ccccc1NC(=O)c1cnn2c(C(F)(F)F)cc(-c3ccc(OC)c(OC)c3)nc12 1.24%
COCCNC(=O)C(=O)Nc1c2c(nn1-c1ccccc1)CS(=O)(=O)C2 -12.3%
Cc1ccccc1NC(=O)CSc1nc2ccc(NC(=O)COc3ccccc3F)cc2s1 26.7%
COc1cc(OC)c(NC(=O)Cn2c(=O)cc(C(F)(F)F)c3c(C)nn(C)c32)cc1Cl 0.713%
CCOC(=O)c1c(C)sc(-c2c(-c3cc(C)ccc3C)[nH]c3c2c(=O)[nH]c(=O)n3C)c1O -21.1%
CCOc1ccc(CCNC(=O)Cn2nc(C)c3c(C)n(-c4ccccc4)nc3c2=O)cc1OCC -12.2%
COc1ccccc1OCc1ccc(C(=O)Nc2ccc(C)c(C)c2)o1 7.54%
CCOC(=O)c1cnn(-c2cccc(F)c2)c1C1CCNCC1 3.24%
Cc1cccc(NC(=O)Cn2nc(N3CCN(c4ccccc4)CC3)ccc2=O)c1C 32%
CCCCN(CC)CCCNC(=O)c1cn(C)c2ccc(S(=O)(=O)N(C)C3CCCCC3)cc2c1=O -5.85%
CCOc1cc(C(=O)NCc2ccc3c(c2)CCN3C(=O)CC)cc(OCC)c1OCC -1.66%
O=C(Nc1ccccc1C(=O)O)c1cccc(S(=O)(=O)N2CCCC2)c1 8.08%
O=C(NCc1ccc(F)cc1)C1CCN(C(=O)c2cnn(-c3ccccc3)c2-n2cccc2)CC1 9.21%
Cc1ccccc1NC(=O)CN(C)S(=O)(=O)c1cccc2nsnc12 -13.5%
COc1cccc(CNC(=O)CCC(=O)N2CC3CCCN3c3ccccc32)c1 (stereo not drawn) -24.2%
CCC(Cn1nnc2ccccc2c1=O)NC(=O)Nc1cccc(Cl)c1 (stereo not drawn) -17.5%
CCc1cccc(NC(=O)Cn2c(=O)n(CC3CCC(C(=O)NCCc4ccccc4)CC3)c(=O)c3ccccc32)c1 (stereo not drawn) 1.23%
Cc1ccc(C(=O)N2CCN(c3ccccc3F)CC2)cc1NC(=O)c1nsc2ccccc12 -36.2%
COc1ccc(-c2[nH]ncc2C(=O)NCc2ccc(F)cc2)cc1 -13.1%
Cc1c2cnn(CC(=O)Nc3ccc(F)cc3F)c(=O)c2c(C)n1Cc1cccc(Cl)c1 -8.7%
CCOC(=O)c1cc2c(=O)n3ccccc3nc2n(Cc2ccco2)c1=NC(=O)c1ccccc1OC -22.6%
Cc1ccc(NC(=O)C2CCCN(c3nnc(C)c4c(C)n(-c5ccccc5)nc34)C2)cc1Cl (stereo not drawn) 14.8%
COc1ccc(-n2nc3c(c2NC(=O)C(=O)N2CCN(C)CC2)CSC3)cc1 -6.78%
Cc1cc(C)cc(OCC(=O)Nc2cccc(-c3nc4ccccc4[nH]3)c2)c1 9.76%
O=C(Cn1c(=O)n(-c2ccc(F)cc2)c(=O)c2sccc21)Nc1cccc(C(F)(F)F)c1 -24.4%
COc1ccc(Cn2c(C(=O)O)c(CNCCc3ccccc3Cl)c3ccc(C)cc32)cc1 45.1%
Cc1ccc(-n2nc3c(=O)n(C(C)C(=O)O)nc(C)c3c2C)cc1 (stereo not drawn) -10.6%
COc1cccc(CNC(=O)Cn2c(=O)oc3cc(S(=O)(=O)N4CCC(C)CC4)ccc32)c1 12.4%
CCC(=O)N1CCc2cc(S(=O)(=O)CCC(=O)NCc3ccc(F)cc3)ccc21 33%
CC(C)NC(=O)c1cc2c(Cl)nc3ccccc3c2s1 14.2%
Cc1cc(O)c(C(=O)c2cnc3c(c2)COc2ccccc2-3)cc1Cl -27.1%
Cc1ccc(CNC(=O)c2ccc3c(c2)N(Cc2cccc(Cl)c2)C(=O)CS3)cc1 -8.18%
CCOc1ccc(NC(=O)Cn2cc(C(=O)c3ccc(C)c(C)c3)c(=O)c3cc(F)ccc32)cc1 -11.2%
Cc1ccc(Cl)cc1NC(=O)Cn1c(=O)n(CCC(=O)N2CCc3ccccc3C2)c(=O)c2ccccc21 2.58%
CCOc1ccc2nc(N3CCCC(C(=O)NCCc4ccc(SC)cc4)C3)sc2c1 (stereo not drawn) -2.89%
COc1cc(NC(=O)CSc2nc3nc(C)c(Cc4ccccc4)c(C)n3n2)cc(OC)c1 -8.38%
CCN(c1ccc(C)cc1C)S(=O)(=O)c1nnc(NC(=O)CC(C)C)s1 37.5%
Cc1c(CNC(C)c2ccccc2)c(C(=O)O)c(C)n1Cc1c(F)cccc1Cl (stereo not drawn) 2.92%
CCOc1ccc(-c2c(C)nn3c(C)c(C(=O)NCC(C)c4ccccc4)cnc23)cc1OCC (stereo not drawn) -17.5%
C[N+](C)(C)CC(=O)[O-] 3.43%
COc1cc(-c2noc(-c3nnn(-c4ccc(Cl)cc4)c3C)n2)cc(OC)c1OC -12.2%
CCc1ccc(N2C(=O)CS(=O)(=O)C23C(=O)N(Cc2ccccc2)c2ccccc23)cc1 (stereo not drawn) -9.83%
Cc1ccc(-n2nc(CO)c(C(=O)NCCc3ccccc3)n2)cc1C -10.9%
O=C(Nc1ccccc1C(F)(F)F)c1noc2c1CCCCC2 13.5%
CCCc1nn(C)c2c(=O)[nH]c(-c3cc(S(=O)(=O)N4CCN(C)CC4)ccc3OCC)nc12 -11.2%
